Patent US20060039927A1 (US Dept. of Health and Human Services, published 2006)

Target: T1, sgp130-Fc (R&D Systems), a fusion protein of sgp130 and human IgG Fc (human, UniProt P40189 23-619)
T1 construct: extracellular domain; Immobilized on the CM5 chip in the BIAcore work; the results text calls it sgp130; also called immobilized sgp130; not shown: human IgG Fc
T1 sequence (looked up): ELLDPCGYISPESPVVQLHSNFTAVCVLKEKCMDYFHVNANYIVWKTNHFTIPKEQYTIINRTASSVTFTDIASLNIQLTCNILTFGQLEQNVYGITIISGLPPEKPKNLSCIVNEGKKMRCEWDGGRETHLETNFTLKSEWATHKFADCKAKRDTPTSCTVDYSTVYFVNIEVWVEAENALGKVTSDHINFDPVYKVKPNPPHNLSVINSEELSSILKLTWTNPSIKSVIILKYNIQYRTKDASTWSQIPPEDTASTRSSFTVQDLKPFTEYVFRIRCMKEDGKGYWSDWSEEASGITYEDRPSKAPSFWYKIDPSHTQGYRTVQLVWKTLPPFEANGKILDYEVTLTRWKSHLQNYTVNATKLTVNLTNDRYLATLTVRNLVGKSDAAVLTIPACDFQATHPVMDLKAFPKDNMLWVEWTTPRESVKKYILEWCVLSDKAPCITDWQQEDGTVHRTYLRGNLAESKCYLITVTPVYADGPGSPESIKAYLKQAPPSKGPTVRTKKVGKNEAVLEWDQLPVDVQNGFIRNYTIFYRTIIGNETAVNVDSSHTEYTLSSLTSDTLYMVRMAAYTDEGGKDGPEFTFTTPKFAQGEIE
Test: surface plasmon resonance (BIAcore 2000), sgp130 immobilized at 18.2 ng/mm2, human IL-6 50 µg/mL plus sIL-6Rα 20 µg/mL

B1: human IL-6 preincubated with sIL-6Rα (human IL-6/sIL-6Rα complex) (other)
chain 1: [about 200 residues not shown]
chain 2: LAPRRCPAQEVARGVLTSLPGDSVTLTCPGVEPEDNATVHWVLRKPAAGSHPSRWAGMGRRLLLRSVQLHDSGNYSCYRAGRPAGTVHLLVDVPPEEPQLSCFRKSPLSNVVCEWGPRSTPSLTTKAVLLVRKFQNSPAEDFQEPCQYSQESQKFSCQLAVPEGDSSFYIVSMCVASSVGSKFSKTQTFQGCGILQPDPPANITVTAVARNPRWLSVTWQDPHSWNSSFYRLRFELRYRAERSKTFTTWMVKDLQHHCVIHDAWSGLRHVVQLRAQEEFGQGEWSEWSPEAMGTPWTESRSPPAENEVSTPMQALTTNKDDDNILFRDSANATSLPVQDSSSVPLP
notes: also called human IL-6 plus sIL-6Rα
- binding result: binds
